Experimental findings from PubChem BioAssay AID1956 (SRMLSC, 2009) are described below.

The other results are listed elsewhere or left out. Shown are side measurements of this screen, not its main read-out; they come without a call.

In general, viability refers to a read-out of living cells in per cent, often relative to untreated cells.

A short description of the experiment: compounds boosting herpes simplex virus growth – fold increase, host cell viability (AID 1956). Further: tested in PC3 cells. The note with it: HSV replication augmentation in cells; fold increase: measured here: primary screen fold increase 10 uM, at 10 µM, stronger effect = higher value; viability: measured here: host cell viability series, at 25 µM, stronger effect = lower value.
On to `Cc1occc1C(=O)N/N=C/C1=C(N2CCOCC2)C(=C\c2ccc(Cl)cc2)/CC1`, for which the fold increase came to 1.36 and the viability was 94.5%.

Consider `CCOC(=O)C1=C(N)N2C(=O)C(C)SC2=C(C(=O)OC)C1c1cccc(OC)c1` (centres undefined), for which the fold increase was 1.37 and the viability came to 97.7%. As to `C/C(=C/C(=O)NCc1ccccc1)C(=O)O`, the fold increase stood at 1.4 and the viability was found to be 102%. Regarding `CC1=CC(C)(C)N2C(=O)C(=O)c3cc(OC(=O)c4ccco4)cc1c32`, the fold increase was found to be 2.24 and the viability came to 44.1%. In turn, `CCc1nc2oc3cc(OC)ccc3c(=O)c2c(=O)n1Cc1ccco1` had a fold increase of 1.36. Consider `Cc1ccc(OC(C)C(=O)N(Cc2cccs2)C2CCS(=O)(=O)C2)cc1C` (centres undefined), for which the fold increase is 1.35 and the viability came to 96.7%. As to `CN1CCc2c(sc(/N=C/c3c[nH]c4ccccc34)c2C#N)C1`, the fold increase amounted to 2.01 and the viability is 100%.

On to `COc1cccc(C(=O)NCc2ccc3c(c2)cc(C)n3C)c1`, for which the fold increase is 1.36 and the viability worked out at 94.3%. `CCOC(=O)/C(C#N)=C\c1ccc(N2CCN(C/C=C/c3ccccc3)CC2)cc1` had a fold increase of 1.35.

For `NC(=O)CN1CCN(C(=O)Nc2ccccc2)CC1`, the fold increase came out at 1.33 and the viability turned out to be 99.5%. Take `Cc1cc(N2CCCC2)ccc1/C=C1\NC(=S)N(C)C1=O`: the fold increase is 4.44 and the viability amounted to 84.5%.

Regarding `NC(=O)c1c(Nc2nc3c(F)cccc3s2)sc2c1CCCC2`, the fold increase came to 4.35 and the viability was determined as 101%. Take `O=C(OCCN1C(=O)c2cccc3c(N4CCOCC4)ccc(c23)C1=O)c1ccc(Cl)cc1`: the fold increase stood at 8.34. For the compound `CCONC(=O)Nc1ccccc1[N+](=O)[O-]`, the fold increase is 1.32. For `CN1CCS/C1=C/C=C1/SC(=S)N(Cc2ccccc2)C1=O`, the fold increase was determined as 4.62 and the viability came to 73.1%. As for `O=C(O)/C(=C\C(=O)c1ccccc1)Nc1ccccc1`, the fold increase stood at 1.37 and the viability is 96.8%. In turn, `O=C(Cn1cc2c(n1)CCCCC2)NCc1ccccn1` displayed a fold increase of 1.33.

Compound `O=C(Nc1nc(-c2cccs2)cs1)c1cccc(S(=O)(=O)N2CCCCCC2)c1` had a fold increase of 1.12. For the compound `COc1ccc(/C=C2\SC(=O)NC2=S)cc1OC`, the fold increase turned out to be 4.99. Consider `C/C(Cc1ccccc1)=N\NC(=O)CNC(=O)c1ccc2c(c1)OCCO2`, for which the fold increase came out at 1.37 and the viability stood at 103%. In the same order, the values of `c1ccc(Nc2ccc3c4c(cccc24)CC3)cc1` are 6.14 and 93%. The compound `CCOC(=O)C1CCCN(c2nc3ccccc3nc2C(C#N)C(=O)OC(C)C)C1` (centres undefined) yielded a fold increase of 1.35. In turn, `CC(C)Oc1ccc(Cn2c(-c3ccco3)n[nH]c2=S)cc1` returned a fold increase of 1.09. Compound `CCN1/C(=C/C=C/c2oc3ccc(-c4ccccc4)cc3[n+]2CC)Oc2ccc(-c3ccccc3)cc21` came in with a fold increase of 9.16.

As for `CN(C)c1ccc(/C=C/C(=O)c2ccccc2O)cc1`, the fold increase is 1.96 and the viability was found to be 99.5%. As for `CCOc1cccc(C2C(C(=O)c3ccc(C)o3)=C(O)C(=O)N2c2nccs2)c1` (centres undefined), the fold increase was found to be 1.15. As for `COc1ccc(/C=c2\s/c(=C/C(=O)c3ccc(C)cc3)[nH]c2=O)cc1OC`, the fold increase amounted to 2.82.

Compound `O=C(CCc1nnc(C2CCCCC2)o1)N1CCN(Cc2ccccc2)CC1` gave a fold increase of 1.32. In the case of `Cc1cc(Oc2ccc(N)cn2)ccc1Cl`, the fold increase was 1.49 and the viability turned out to be 96.6%. Consider `O=C(Oc1ccc2c(c1)O/C(=C\c1ccncc1)C2=O)c1ccccc1`, for which the fold increase came out at 1.49 and the viability was determined as 87.9%. Turning to `Cc1nc(-c2ccccc2)nc2sc(C(=O)c3ccc(F)cc3)c(N)c12`, the fold increase was determined as 1.46 and the viability was 83.6%. Turning to `Cc1nn(C)c(C)c1NC(=O)/C(C#N)=C\N(C)C`, the fold increase was found to be 1.4 and the viability came out at 99.5%.

In the case of `CN1CCN(C2=CC3=CC(=C(C#N)C#N)CCC3CC2)CC1` (centres undefined), the fold increase was 9.42 and the viability came out at 92.3%. Take `N#CC1CC(c2ccc([N+](=O)[O-])cc2)=NN1c1ccc([N+](=O)[O-])cc1` (centres undefined): the fold increase was determined as 1.58. Regarding `Cc1cc(/C=c2\sc3nc4ccccc4n3c2=O)c(C)n1-c1ccc(C(=O)O)cc1`, the fold increase turned out to be 1.34 and the viability is 97.6%.

As to `Cc1cc(C)n(-c2ncnc3ccccc23)n1`, the fold increase is 1.49 and the viability came out at 97.5%. As to `CC(=O)c1cc(CN2CCN(C3CCN(C(C)C)CC3)C(CCO)C2)cs1` (centres undefined), the fold increase amounted to 1.42 and the viability was found to be 81.8%. `N#Cc1c(-c2ccccc2)c(-c2ccccc2)n(Cc2ccco2)c1NC(=O)c1cccs1` had a fold increase of 1.16. On to `O=C(CCNC(=O)c1ccc([N+](=O)[O-])cc1)Nc1ccc(N2CCOCC2)cc1N1CCOCC1`, for which the fold increase came out at 1.56 and the viability came out at 99.5%.

Consider `Cc1cn(C2OC(COC(=O)c3ccccc3)C(O)C2Cl)c(=O)[nH]c1=O` (centres undefined), for which the fold increase is 1.39 and the viability worked out at 91.5%.

In turn, `CCOC(=O)c1c(N)sc(=S)c2c1CCC2` gave a fold increase of 1.27.

The compound `CCOC(=O)CC1C(=O)NCCN1c1nc2c(C)cccn2c(=O)c1/C=C1\SC(=S)N(C(C)CC)C1=O` (centres undefined) returned a fold increase of 7.94.

Regarding `Nc1c(C(=O)c2ccccc2)sc2snc(SCC(=O)c3ccccc3)c12`, the fold increase is 1.54 and the viability is 76.1%.

With `CNC(=S)NNC(=O)c1oc2nc(-c3ccccc3)cc(-c3ccco3)c2c1N`, the fold increase is 1.94 and the viability is 98.5%. `C/C(=N\Nc1ccc([N+](=O)[O-])cc1)c1cc2ccccc2o1` came in with a fold increase of 2.09. Turning to `O=C(O)CCC(=O)N1CCc2cc(S(=O)(=O)NCc3cccs3)ccc21`, the fold increase was 1.32 and the viability amounted to 99.1%. `CCOc1ccc(NC(=O)/C(C#N)=C/c2ccc(N3CCCC3)c(C)c2)cc1` had a fold increase of 2.93.

Regarding `N#Cc1ccc(-c2cccnc2)nc1SCC(=O)c1ccccc1`, the fold increase was 3.25 and the viability was found to be 92.5%.

With `COc1ccc(OC2C(=O)N(Cc3ccc(F)cc3)C2c2cc(OC)c(OC)c(OC)c2)cc1` (centres undefined), the fold increase was found to be 1.33 and the viability came to 104%.

For the compound `COc1cc2c3nnc(-c4ccccc4)c-3cn(Cc3ccc(F)cc3)c2cc1OC`, the fold increase was 2.46 and the viability amounted to 95.4%. For `CCOC(=O)C1=C(N)n2c(s/c(=C\c3ccco3)c2=O)=C(C(=O)OC(C)C)C1c1ccco1` (centres undefined), the fold increase came out at 1.35 and the viability worked out at 80.6%. `O=C(NCCc1ccccc1)C1CCN(c2ncccn2)CC1`: the fold increase is 1.35 and the viability came out at 98.8%.

For the compound `Cc1ccc(C2NC(=O)c3c(sc4c3CCN(C)C4)N2)s1` (centres undefined), the fold increase was 1.35 and the viability was 96.4%. Compound `Cc1[nH]nc(NNC(=O)c2ccccc2)c1[N+](=O)[O-]` yielded a fold increase of 1.32. In the case of `Nc1ccccc1Sc1ccc(C(=O)c2ccccc2C(=O)O)cc1[N+](=O)[O-]`, the fold increase was 1.4 and the viability was 100%. In the same order, the values of `COC(=O)c1sc(NC(=O)/C=C/c2ccc(C)o2)nc1C` are 1.4 and 99.5%. Take `COC(=O)CSc1nc(N)c2c3c(sc2n1)C(c1ccccc1)SC(c1ccccc1)C3` (centres undefined): the fold increase came out at 2.59. The compound `Cc1cccc2cc3c(N)c(C(=O)N4CCCc5ccccc54)sc3nc12` yielded a fold increase of 2.12. For the compound `CC1=CC(c2ccccc2)n2nc(NS(=O)(=O)c3ccc(C)cc3)nc2N1` (centres undefined), the fold increase turned out to be 1.35 and the viability came to 94.8%. In turn, `Cc1cc(C(=O)NNC(=S)NC(C)c2ccccc2)c2ccccc2n1` (centres undefined) displayed a fold increase of 1.19.

As for `N#C/C(=C\c1ccc(-c2ccc(C(=O)O)cc2)o1)c1nc2ccccc2[nH]1`, the fold increase worked out at 9.08 and the viability is 98.5%.
